According to the supplement of paper PMC11417369:
± gives the standard deviation of the averaged measurements. Some of the results follow.

What follows are sequences tested on PfAP2-I AP2 domain 3 (GST-tagged) (assay: gcPBM binding intensity (ln(normalized median fluorescence intensity)); higher = stronger DNA binding).
How it was run: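 Probes on an Agilent 4 × 180k array were primer-extended, double-stranded and 36 bp long, taken from intergenic genomic regions, with negative controls added. GST-tagged P. falciparum DNA-binding domains from E. coli, about 25 μg on average, were applied to the array for 1 h in 1× PBS containing 1% milk, 0.2 mg/ml BSA, 0.5% salmon testes DNA and 0.03% Triton X-100. Binding intensity, obtained after Alexa488 anti-GST antibody detection and a 488 nm scan, is the highest Masliner-normalised natural-log median intensity across replicate spots of either probe orientation.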

Sequence	gcPBM binding intensity (ln)
AAGAATATTATAAACACACACTTTATAAAGAATTAT [CACACA_site4241]	7.62 ± 0.62
TATATAATTGTCTTCACACACACATATATATATATA [CACACA_site2744]	9.14 ± 0.28
TATTTTATTTGTATATTCATTTGTATAATATAAATA [TGCATGCA_negctrl_site267]	7.37 ± 0.55
AAATGTAATATAAATAGTACATATTAAATAAAATTA [XGTACX_site6917]	7.44 ± 0.35
ATGTGCACATATAAAAGTACACGCACATATATATAT [XGTACX_site1238]	9.88 ± 0.23
TGCACAAAGTTATGCACACACCTAAAATTAATTTTT [CACACA_site7385]	9.67 ± 0.13
TATACACATATATACACACACATATATAAATAAATA [CACACA_site7579]	7.77 ± 0.37
ATTCTTTATATGCATACACACCTAATATAGGGACCT [CACACA_site6830]	8.39 ± 0.72
GTACATAGGTATAGCACACACAAATGTAGGTATTTT [CACACA_site4049]	8.56 ± 0.41
TTATAATATGTATACACACACATATATAGATATATA [CACACA_site7159]	7.85 ± 0.42
GTTCAAATTATTATGTGTACTAAAGAATATTTTAAA [XGTACX_site3166]	7.81 ± 0.27
TCTATTTTTTATATGGTGCATTGTTCTTATTAATAT [GTGCAC_site9392]	10.8 ± 0.71
CTTTATTTTTTATACACACACAATATGTATTTATAT [CACACA_site5879]	8.1 ± 0.52
AGGAAAAATAATTATTCACACAATAAATATATTTGA [CACACA_site5824]	7.6 ± 0.44
AATTAATTTATGTTACGTACATAAGTATTATATTTT [XGTACX_site388]	7.92 ± 0.23
GTAAAACAGATTTACAGTACACATGTGTTATGTTTT [XGTACX_site2933]	7.76 ± 0.53
TTTATATATAAATAATGTACAAAAAATTTTAAAAAG [XGTACX_site7990]	7.98 ± 0.58
ATAAAAATATTTGAATGTACTTATAAGATATATATA [XGTACX_site4257]	7.82 ± 0.46
TTTTTATATTTTATTATTTTTTTTATATAAAAAATT [CACACA_negctrl_site601]	7.83 ± 0.61
AAATCGTGCACGGACACATGCAGTAGCCGAGAATTA [TGCATGCA_site733]	10.1 ± 0.12
TGTTTATTTATTTGTGTGCACTCAGATTATATTATA [GTGCAC_site9510]	10.5 ± 0.42
GATGTATTCATACATGCACACGTACATATTTAAATA [CACACA_site9299]	8.47 ± 0.37
TATTTTAATTTTTGTTGTACGCAAATGTGAGGGCAT [XGTACX_site4663]	8.02 ± 0.45

Sequence	gcPBM binding intensity (ln)
TAAACCAAAAAAAGTAGTACAAATATTATAAAAAAA [XGTACX_site8497]	7.88 ± 0.49
AGGTAGAAAAAAGACACACACATTAGATATTTATAT [CACACA_site6313]	7.75 ± 0.7
GTTCATAAATTAAACACACACACACGGCTGGATACC [CACACA_site7545]	8.47 ± 0.3
TATACGTATTACAGAGTGCAATAAACAGTATATATT	10.9 ± 0.66
TATATATGTGTATAGAGTACACGTTTTTTTTAATAT [XGTACX_site3128]	7.71 ± 0.38
AAAAACCTGAACTGTGCATGTCATACTTTTACTTTT [TGCATGCA_site73]	8.42 ± 0.98
TGTATAAACTTTACGTGTACATGAATAATCTATAAT [XGTACX_site3801]	7.93 ± 0.3
TAAATACATCTATGCACACAAAAAAATATATATTTT [CACACA_site5027]	8.77 ± 0.12
TTTATAAATTCTCTTTTTAAAAAATATTTTTATACT [CACACA_negctrl_site427]	7.6 ± 0.54
TAATCATTTTAGCTTACACACAAAATTTTGTTATAA [CACACA_site2939]	7.66 ± 0.62
AAAATGGAACTAGGAATAATATAAGAAGATAAAAGG [XGTACX_negctrl_site347]	7.91 ± 0.81
TTGTACAAAAATAATGCACACTATATCAAGTTTTTT [CACACA_site5898]	10.9 ± 0.7
ATTATTACACAACGTTGTACATTTCAATATTTTTAT [XGTACX_site5096]	8.39 ± 0.34
AAAATAATATATAATTGTACTTTTTTTTTATATATA [XGTACX_site6093]	7.96 ± 0.18
TTTCTTTTTTTTTAATGTACTTTTTTTATAAAAGGT [XGTACX_site5688]	7.99 ± 0.23
TTTTTTCTTAAAATTTGTACATAGTGCAATTTTTTT [XGTACX_site5509]	9.5 ± 0.69
TCCTCTTCAATATATATATATTATAAATAAATAAAT [CACACA_negctrl_site1756]	8.03 ± 0.21
TGTACATATATATATATAATAATAGTTATGTTTATT [CACACA_negctrl_site1474]	7.64 ± 0.41
TTTTTTTATAGCTAAACACACATAAGAATATATGTT [CACACA_site1099]	7.67 ± 0.52
ACATACTTTAATATATGTACATAAGAAAAAAAAAAA [XGTACX_site2991]	8.01 ± 0.59
AATATAAATTAATTTACACACTAAAAAATATTTATA [CACACA_site7728]	7.75 ± 0.49
TATTTTTTATATTTATTTATTTAAAGGAGCTTTTCT [GTGCAC_negctrl_site293]	7.38 ± 0.43
TATAAGAATGACAAGTGTACATATCAAATATATTAG [XGTACX_site7113]	7.77 ± 0.38

Sequence	gcPBM binding intensity (ln)
TATACTAAAAAATACACATGCACATACAATATATAT [TGCATGCA_site1016]	8.15 ± 0.82
AAATTTATATAATATTGTACATTAAAAATTATATAT [XGTACX_site8009]	7.73 ± 0.3
TGGGTAATACATAATACACACATGTATATGTCGCAT [CACACA_site1125]	7.78 ± 0.47
AGTATATATACACAAGGGGAATACATATACAAAATT [TGCATGCA_negctrl_site244]	7.85 ± 0.61
TATGTATAAATATATGCACACATATATATATTTATA [CACACA_site9150]	8.85 ± 0.26
AAGTTGTATATTGATTGTACTTGTTTAGGGTTATAG [XGTACX_site2953]	7.7 ± 0.45
ATATATATAATAAACACACACATATACATATATGTA [CACACA_site3462]	8.26 ± 0.47
TATATATATATAATGTGTACACAAATATATATTATA [XGTACX_site8786]	9.2 ± 0.26
AGGTAAAATATACATTGTACATATAATTAATTTATT [XGTACX_site626]	7.58 ± 0.45
TATTAACACTTTATAGAAACAAAAAAATAAGCAAAA [XGTACX_negctrl_site295]	7.76 ± 0.71
TTTGAATTTTTTAACACACACATGTGTGGATATATA [CACACA_site6872]	7.92 ± 0.42
ATAAATCATAAGGAGAGTACATAAATAAAATAATCA [XGTACX_site8825]	7.7 ± 0.59
CTCAATATATTTGATTTACACACTTACAATGTATAT [CACACA_site8982]	7.95 ± 0.54
AAGTGGCATATAAGTAAAAAATATATACAAGTATAT [GTGCAC_negctrl_site427]	8.29 ± 0.057
TATTAAAGATACTCGGTATAAATAAATTTTAATGTG [XGTACX_negctrl_site239]	7.67 ± 0.4
TATAAAAAATATAATTGTACATAAAGGTTAAAATGT [XGTACX_site6138]	8.16 ± 0.52
TTATTTCTACCTTTTTGTACACATTATTATGAAACC [XGTACX_site5325]	8.54 ± 0.35
ACAACATGCACACGCACACACAAAAAAAGCATGCAT [CACACA_site6185]	8.84 ± 0.13
ATGCTTATTATTTATTGTACTGAATAAATATATCTG [XGTACX_site4483]	7.79 ± 0.46
AAACAAAAAAGAAACACACACTAATTAAATTTTCTT [CACACA_site4746]	7.42 ± 0.65
TACAATACCGTACAGGTGCAACTAGCCAAAAAAAAG	9.54 ± 0.29
TAAATTAATAAAAAGTGTACATAATATACATATATA [XGTACX_site8604]	7.86 ± 0.4
TTTAATAATATTTAGGTGCTATATATTATATGTATA	9.72 ± 0.59

Sequence	gcPBM binding intensity (ln)
ATAATTAAAAAAGGAATATATATATATATATATATA [GTGCAC_negctrl_site343]	9.38 ± 0.52
CGTATGACATAATATTGTACTTTTGATATACATCAT [XGTACX_site7366]	7.68 ± 0.44
TTTATTTTGTAGTGTACACATATATATATATATATA [CACACA_site5843]	9.55 ± 0.59
TATATTTTTTTTCTAGTGCATATTATTAATTAAGTT	9.895 ± 0.021
TGAGTATTTTTTTAATGTACTTATATTAAAAGGAAA [XGTACX_site6286]	7.84 ± 0.14
AAAATATTATTTTGTTGTACATATAAAATTTTAAGC [XGTACX_site1866]	7.98 ± 0.35
TACAAAATAAGACATGCATGTTATACATATATATTT [TGCATGCA_site321]	7.58 ± 0.8
TATGTCAAAAAATAATGTACAAAAAAATTAACATAA [XGTACX_site5463]	7.55 ± 0.45
ATATAAAATAGACACGCACACAAAAAAAAAAAAAAA [CACACA_site3522]	8.23 ± 0.61
CTATAATATAGGTATACACACATATTATAGAATATT [CACACA_site7696]	7.5 ± 0.42
TATATATGGAAAAGGTGTACATTCAATATATATATA [XGTACX_site3167]	9.02 ± 0.014
GTTGTATACAATAATGTGCACATATTAATTTGAACT	9.9 ± 0.11
AAATGTACAGGACGCACACACATATTTATATTTATA [CACACA_site7689]	8.07 ± 0.29
TATATATATATAATTGCACACATCAAGTTTGATGTT [CACACA_site1288]	9.62 ± 0.26
TTTTTTTTTCCTTTTTTTTAAATATTAAAAATGGGA [TGCATGCA_negctrl_site494]	7.63 ± 0.53
TAAATATATATATATAGTACAATATAATTATGATAT [XGTACX_site258]	7.79 ± 0.36
CTTATTTACTATTTTTCACACATTACAGATAAACAA [CACACA_site6095]	8.16 ± 0.35
TAAGTTTTGTTTTTTTGTACTCATTCATACTATCAT [XGTACX_site3638]	7.96 ± 0.55
TCATTGAAAAAAATCTGTACTGACTATATAGTTGCA [XGTACX_site1566]	7.41 ± 0.45
TATAATATATGTATATGTACTTATGTTGAGAAACAT [XGTACX_site2117]	7.72 ± 0.59
